Measured values from PubChem BioAssay AID485344 (National Center for Advancing Translational Sciences (NCATS), 2010).
About 6,900 (2%) of roughly 340,000 compounds were called active. Cut-off read from the data, not from the text of the source: active = inhibition above about 30%; inactive = below that, where a call was filed. This is a selection; strong and weak results do not stand in their true shares. Entries without a call were filed so in the source.
Note: 0% is about no effect.

Each compound was assayed against D(2) dopamine receptor (Homo sapiens) (UniProt P14416) (assay: HTS Assay for Allosteric Antagonists of the Human D2 Dopamine Receptor: Primary Screen for Antagonists). Settings: HEK293 TREx D2 cells, calcium flux, dopamine EC80; at 10 µM; stronger effect = higher value.
UniProt P14416, sequence (P14416 whole entry, looked up): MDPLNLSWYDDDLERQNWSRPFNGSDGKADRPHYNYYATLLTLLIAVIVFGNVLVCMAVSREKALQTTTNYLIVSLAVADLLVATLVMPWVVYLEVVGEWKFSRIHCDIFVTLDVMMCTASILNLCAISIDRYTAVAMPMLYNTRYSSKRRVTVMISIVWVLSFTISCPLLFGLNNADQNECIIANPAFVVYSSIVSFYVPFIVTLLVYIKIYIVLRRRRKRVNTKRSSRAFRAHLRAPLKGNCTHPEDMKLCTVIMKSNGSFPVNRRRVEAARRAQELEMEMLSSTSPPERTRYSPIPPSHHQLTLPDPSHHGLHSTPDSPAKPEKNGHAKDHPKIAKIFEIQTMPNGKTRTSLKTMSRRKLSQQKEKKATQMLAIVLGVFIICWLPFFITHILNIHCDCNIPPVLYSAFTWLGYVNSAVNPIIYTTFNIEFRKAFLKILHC
In short: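 Tetracycline-induced HEK293 TREx cells expressing D2 receptor forced-coupled to calcium signalling, loaded with no-wash calcium dye. Compounds added and calcium flux read 180 s, then dopamine added at EC80 and read a further 180 s.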
`COc1ccc(OC)c(NC(=O)c2cnc(N3CCCC3)nc2C)c1` gave an inhibition of -3.3%. With `Cc1ccc(C(=O)N2CCc3cc(CNC(=O)CCc4ccccc4)ccc32)cc1` the inhibition was -9.67%. For `Cc1cccc2cc(CN(Cc3cccs3)C3(c4nnnn4C4CCCC4)CCCC3)c(=O)[nH]c12`, the inhibition was active: 77.5%. With `O=C(NC1CC(=O)N(c2ccccc2)C1)c1ccco1` (centres undefined) the inhibition was 23.3%. In the case of `COc1cccc(C(=O)NCCc2csc(-c3cccc(F)c3)n2)c1OC`, the inhibition is reported as 21.6%. In the case of `COc1ccc(/C=C/C(=O)OCC(=O)c2ccc[nH]2)cc1`, the inhibition is reported as active: 38.1%. For `O=C(Nc1ccc(F)cc1)Nc1ccc2snnc2c1`, the inhibition was -1.92%. In the case of `CCc1cccc(NC(=O)CN(c2ccc(C)cc2)S(=O)(=O)c2cccs2)c1`, the inhibition is reported as 6.52%. `Cc1c(/C=N\NC(=O)c2cc3ccccc3o2)c2ccccc2n1C` was tested, and the inhibition was active: 33.1%. `COc1ccc(Cl)cc1C1CC(=O)Nc2cc3c(cc21)OCCO3` (centres undefined) showed an inhibition of 16.5%. For `CCCCNc1sc(S(=O)(=O)CCC)nc1S(=O)(=O)c1ccc(C)cc1`, the inhibition was -0.817%. For `CCOc1ccccc1NC(=O)CCc1c(C)nc2c3cccnc3nn2c1C`, the inhibition was -6.59%. For `CCc1cccc(NC(=O)Cn2ncc3c([nH]c4ccc(C)cc43)c2=O)c1`, the inhibition was -4.91%. For `Cn1cc(S(=O)(=O)CC(=O)Nc2ccc(Br)cc2)c2ccccc21`, the inhibition was active: 39.2%. For `O=C(CCc1nnc(-c2ccc(-c3ccccc3)cc2)o1)N1CCCCC1`, the inhibition was active: 62.2%. For `Cc1ccc(CN2C(=O)c3ccccc3Sc3ccc(C(=O)NC4CCCC4)cc32)cc1`, the inhibition was -16.9%. For `CCNC(=O)c1c2c(nc3ccccc13)C(=O)N(C1CCCCC1)C2`, the inhibition was 4.74%. `O=C(Cn1c(=O)n(CCCS(=O)(=O)C2CCCCC2)c(=O)c2ccccc21)Nc1ccc(F)c(Cl)c1` was tested, and the inhibition was -0.293%. In the case of `COc1ccc(C)cc1NC(=O)N1CCN(c2nnc(C)c3c(C)n(-c4ccccc4)nc23)CC1`, the inhibition is reported as 11%. With `COCCCNC(=O)c1nn(-c2ccc(C)cc2)c(=O)n(C)c1=O` the inhibition was -5.34%. Compound `O=C(c1cnc(N2CCCCC2)c2ccccc12)N1CCN(c2cccc(Cl)c2)CC1` has an inhibition of 6.35%. In the case of `CCOc1ccc(NC(=O)CC2C(=O)N(c3ccccc3)C(=O)N2Cc2cccc(OC)c2)cc1` (centres undefined), the inhibition is reported as 2.6%. In the case of `O=c1c(N2CCCCC2)csc2ccc(F)cc12`, the inhibition is reported as 4.06%. Compound `COc1ccc(-c2nc3ccccc3s2)cc1NC(=O)COc1cccc(C)c1` has an inhibition of 1.52%. With `CCc1nc2ccc(C(=O)NCc3cccc(Br)c3)cc2nc1CC` the inhibition was 7.41%. For `CCOc1ccc(NC(=O)C(=O)NCCc2ccccc2)cc1`, the inhibition was 3.67%. With `CCc1ccc(S(=O)(=O)Nc2cc3c(cc2N2CCOCC2)n(C)c(=O)c(=O)n3C)cc1` the inhibition was 10.8%. With `CCOc1ccc2nc(NC(=O)c3ccccc3)sc2c1` the inhibition was 0.982%. `O=C(Cn1ncc2c3ccccc3n(Cc3ccccc3F)c2c1=O)NCCCc1ccccc1` was tested, and the inhibition was -0.487%. Compound `COC(=O)c1ccccc1NC(=O)CSc1nc2nc(C)cc(C)n2n1` has an inhibition of -6.96%. With `CCSc1nc2ccccc2n1CCC(=O)O` the inhibition was active: 44.7%. Compound `CCOc1ccccc1C(=O)N(Cc1ccco1)Cc1ccccc1F` has an inhibition of 4.9%. Compound `Cc1ccc(C(=O)Nc2ccc(Br)cc2)cc1S(=O)(=O)NCc1ccccc1` has an inhibition of -3.62%. With `Cc1ccc(-n2c(SCC(=O)Nc3ccc4c(c3)OCCO4)nc3c([nH]c4ccccc43)c2=O)cc1` the inhibition was -0.285%. `Cc1cccc(NS(=O)(=O)c2nnc(NC(=O)c3cccc(C)c3)s2)c1` gave an inhibition of 0.707%. Work on `COCCNC(=O)c1ccc(-c2nc(CN3CCc4ccccc43)c(C)o2)cc1` yielded an inhibition of 8.49%. In the case of `CCCCNC(=O)Cn1cnc2sc(C)c(S(=O)(=O)N3CCN(c4ccccc4OC)CC3)c2c1=O`, the inhibition is reported as -5.38%. Compound `COc1ccccc1NC(=O)c1ncoc1-c1ccco1` has an inhibition of 5.9%. `CC(C)OCCCNC(=O)CN1C(=O)COc2ccc(S(=O)(=O)N3CCOCC3)cc21` showed an inhibition of -7.34%. `Cc1csc2nc(COC(=O)c3ccc(NC(=O)C(C)C)cc3)cc(=O)n12` was tested, and the inhibition was -10.3%. In the case of `CN(C(=O)CN1C(=O)C2C3CC(C(Br)C3Br)C2C1=O)C1CCCCC1` (centres undefined), the inhibition is reported as active: 30.8%. `CCn1c(=O)c2sccc2n2c(CCC(=O)NCc3ccc(Cl)cc3)nnc12` gave an inhibition of -1.25%. For `N#Cc1ccc(CSc2nnc(-c3ccc(Br)cc3)o2)cc1`, the inhibition was -3.95%. Work on `CCS(=O)(=O)c1ccccc1C(=O)N1CCN(c2nc3ccccc3s2)CC1` yielded an inhibition of -24.4%. `COc1ccc(CNC(=O)CCCN2C(=O)c3cccnc3Oc3ccc(Cl)cc32)cc1` gave an inhibition of 10%. For `CCOC(=O)C1CCN(C(=O)Cn2ncc3c4ccccc4n(C)c3c2=O)CC1`, the inhibition was 9.12%. `Cc1oc(-c2cccc(Cl)c2)nc1CSCC(=O)NCc1ccccc1Cl` showed an inhibition of -17.7%. For `COc1ccccc1Cn1c(SCC(=O)C(C)(C)C)nc2ccccc2c1=O`, the inhibition was 8.06%. For `CCOC(=O)c1c(C)oc2nc(C)nc(N3CCN(c4ccc(OC)cc4)CC3)c12`, the inhibition was -10.4%.
